This is an account of results in patent US9572878B2, “Method of combination therapy using an EGFR antagonist and anti-c-Met antibody” (SAMSUNG ELECTRONICS CO., LTD., priority 2013, dated 2017).

For the assay, the system named is HCC827 ER #15. The assay can be described thus: Combined use of erlotinib and antibodies in erlotinib resistant cell line, cell number by CCK-8. It is filed as cell-based, human. As to conditions: 5 days. As for the experimental part:
In a 96 well plate, diluted HCC827 ER #15 was seeded at 5000 cells/well in a […] medium (GIBCO) containing 10% FBS, and then, incubated at 37° C. overnight. On the next day, the medium was replaced with a RPMI1640 medium containing 1% FBS (GIBCO), and then, the antibody was serially diluted from 100 ug/ml, and the cells were treated therewith at 100 ul. For co-administration, the cells were treated with 10 nM or 100 nM erlotinib, together with the antibody. After 5 days, the number of cells was measured using a CCK-8 reagent (Dojindo laboratory).

B1: VIG2: bispecific antibody: anti-c-Met antibody coupled via (G4S)2 linker to VEGF receptor 1 Ig2 domain (SEQ ID NO: 114) (antibody)
heavy: EVQLVESGGGLVQPGGSLRLSCAASGFTFTDYYMSWVRQAPGKGLEWLGFIRNKANGYTTEYSASVKGRFTISRDNSKNTLYLQMNSLRAEDTAVYYCARDNWFAYWGQGTLVTVSSASTKGPSVFPLAPSSKSTSGGTAALGCLVKDYFPEPVTVSWNSGALTSGVHTFPAVLQSSGLYSLSSVVTVPSSSLGTQTYICNVNHKPSNTKVDKKVEPKSCDCH[not shown - human IgG1 Fc]GGGGSGGGGSSDTGRPFVEMYSEIPEIIHMTEGRELVIPCRVTSPNITVTLKKFPLDTLIPDGKRIIWDSRKGFIISNATYKEIGLLTCEATVNGHLYKTNYLTHRQTNTI
light: DIQMTQSPSSLSASVGDRVTITCKSSQSLLASGNQNNYLAWYQQKPGKAPKMLIIWASTRVSGVPSRFSGSGSGTDFTLTISSLQPEDFATYYCQQSYSRPYTFGQGTKVEIKRTVAAPSVFIFPPSDEQLKSGTASVVCLLNNFYPREAKVQWKVDNALQSGNSQESVTEQDSKDSTYSLSSTLTLSKADYEKHKVYACEVTHQGLSSPVTKSFNRGEC
Consider B1, for which the “synergistic effect of co-administration with erlotinib” value (antibody dilution series with 10 nM or 100 nM erlotinib, FIGS. 4a-4d) is recorded as “excellent synergistic effect”. For the same molecule, the “growth of cell line on co-administration with erlotinib” value (antibody serially diluted from 100 ug/ml with 10 nM or 100 nM erlotinib, compared to single administration, FIGS. 4a-4c) is “effectively inhibited even at a very low concentration”.
